The other results are listed elsewhere or left out. Many values rest on one well or one pass, so single values are uncertain.
Tests used:
Test in all cases: cell count relative to DMSO control; melanoma cells; higher = more viable cells
Conditions in all cases: library dose: standard library concentration; 72 h
[1] = test system: G361
[2] = test system: IPC-298
[3] = test system: IST-MEL1
[4] = test system: LB2518-MEL
[5] = test system: LOXIMVI
[6] = test system: MEL-HO
[7] = test system: MZ2-MEL
[8] = test system: MeWo
[9] = test system: RPMI7951
[10] = test system: RVH-421
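Also: cells treated in 1,536-well plates, then fixed and DAPI-stained, with nuclei counted from automated high-throughput microscope images.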

Structure (SMILES) | cell count [1] [%] | cell count [2] [%] | cell count [3] [%] | cell count [4] [%] | cell count [5] [%] | cell count [6] [%] | cell count [7] [%] | cell count [8] [%] | cell count [9] [%] | cell count [10] [%]
CC(C)C[C@H](NC(=O)[C@H](Cc1ccccc1)NC(=O)c1cnccn1)B(O)O [Bortezomib] + O=C(Nc1ccccc1)c1cc([N+](=O)[O-])ccc1Cl [GW9662] (first compound 0.005 µM, partner dose 10 µM) | 0.653 | 6.99 | 7.16 | 2.03 | 14.9 | 25.7 | 7.37 | 7.43 | 7.71 | 63.9
Cc1cn(-c2cc(NC(=O)c3ccc(C)c(Nc4nccc(-c5cccnc5)n4)c3)cc(C(F)(F)F)c2)cn1 [nilotinib] + CS(=O)(=O)CCNCc1ccc(-c2ccc3ncnc(Nc4ccc(OCc5cccc(F)c5)c(Cl)c4)c3c2)o1 [lapatinib] (first compound 1 µM, partner dose 4 µM) | 52.6 | 70.3 | 72 | 78.2 | 64.4 | 66.3 | 42 | 68.6 | 42.4 | 75.2
CC(C)C[C@H](NC(=O)[C@H](Cc1ccccc1)NC(=O)c1cnccn1)B(O)O [Bortezomib] + NC(=O)Nc1cc(-c2cccc(F)c2)sc1C(=O)N[C@H]1CCCNC1 [AZD7762] (first compound 0.005 µM, partner dose 0.1 µM) | 0.907 | 11.9 | 11.2 | 4.25 | 6.41 | 32.1 | 4.85 | 12.1 | 3.66 | 7.16
COc1ccc(C2=N[C@@H](c3ccc(Cl)cc3)[C@@H](c3ccc(Cl)cc3)N2C(=O)N2CCNC(=O)C2)c(OC(C)C)c1 [Nutlin-3] + C[C@@H](Oc1cc(-c2cnn(C3CCNCC3)c2)cnc1N)c1c(Cl)ccc(F)c1Cl [Crizotinib] (first compound 0.5 µM, partner dose 1 µM) | 59.6 | 104 | 103 | 65.1 | 82.2 | 97.7 | 90.8 | 82.5 | 96.1 | 65.7
Cc1cn(-c2cc(NC(=O)c3ccc(C)c(Nc4nccc(-c5cccnc5)n4)c3)cc(C(F)(F)F)c2)cn1 [nilotinib] + CN(NC(=O)CC(=O)NN(C)C(=S)c1ccccc1)C(=S)c1ccccc1 [STA4783] (first compound 1 µM, partner dose 0.03 µM) | 24.6 | 84.4 | 19.7 | 22.4 | 67.8 | 82.7 | 102 | 17.5 | 78.6 | 66
CC(C)C[C@H](NC(=O)[C@H](Cc1ccccc1)NC(=O)c1cnccn1)B(O)O [Bortezomib] + O=C(O)[C@@H]1[O][Sb](=[O])([O][Sb]2(=[O])[O][C@H]([C@H](O)CO)[C@H](O)[C@H](C(=O)O)[O]2)[O][C@H]([C@H](O)CO)[C@@H]1O [stibogluconate] (first compound 0.005 µM, partner dose 10 µM) | 0.999 | 5.32 | 11.9 | 6.06 | 30.1 | 12.2 | 5.55 | 13.3 | 1.8 | 12.3
Cn1c(=O)n(-c2ccc(C(C)(C)C#N)cc2)c2c3cc(-c4cnc5ccccc5c4)ccc3ncc21 + CCc1ccc(CCOc2ccc(CC3SC(=O)NC3=O)cc2)nc1 [pioglitazone] (first compound 0.02 µM, partner dose 10 µM) | 70.1 | 83.1 | 84.4 | 91.6 | 90.5 | 76.6 | 81.3 | 70.4 | 72.2 | 79
COc1ccc(C2=N[C@@H](c3ccc(Cl)cc3)[C@@H](c3ccc(Cl)cc3)N2C(=O)N2CCNC(=O)C2)c(OC(C)C)c1 [Nutlin-3] + C[C@@H]1CCN(C(=O)CC#N)C[C@@H]1N(C)c1ncnc2[nH]ccc12 [CP690550] (first compound 0.5 µM, partner dose 5 µM) | 77.5 | 122 | 94.3 | 68.1 | 66.6 | 102 | 113 | 82.8 | 107 | 79.9
Cn1c(=O)n(-c2ccc(C(C)(C)C#N)cc2)c2c3cc(-c4cnc5ccccc5c4)ccc3ncc21 + O=c1cc(-c2cccc3c2Sc2ccccc2S3)oc(N2CCOCC2)c1 [KU55933] (first compound 0.02 µM, partner dose 5 µM) | 50.1 | 79.9 | 83.3 | 86.4 | 91.7 | 60.6 | 88.4 | 60.1 | 69.5 | 88.6
Cn1c(=O)n(-c2ccc(C(C)(C)C#N)cc2)c2c3cc(-c4cnc5ccccc5c4)ccc3ncc21 + OCc1c[nH]c2ccccc12 [Indole-3-carbinol] (first compound 0.02 µM, partner dose 4 µM) | 73.3 | 74.4 | 78.3 | 73.1 | 62.7 | 72.8 | 73.6 | 65.4 | 71.2 | 70.7
CC(C)C[C@H](NC(=O)[C@H](Cc1ccccc1)NC(=O)c1cnccn1)B(O)O [Bortezomib] + O=C(O)c1ccc(-c2c[nH]c3ncc(-c4ccccc4)cc23)cc1C1CCCC1 [GSK650394] (first compound 0.005 µM, partner dose 0.8 µM) | 1.81 | 15.8 | 22 | 4.39 | 20.1 | 39.1 | 12.5 | 19.4 | 11.6 | 8.18
CC(C)C[C@H](NC(=O)[C@H](Cc1ccccc1)NC(=O)c1cnccn1)B(O)O [Bortezomib] + O=C(O)c1ccc2c(c1)nc(Nc1cccc(Cl)c1)c1ccncc12 [CX4945] (first compound 0.005 µM, partner dose 2 µM) | 1.31 | 12.1 | 7.61 | 3.7 | 33 | 31 | 3.25 | 16.1 | 4.23 | 30.3
Cc1cc(Nc2cc(N3CCN(C)CC3)nc(/C=C/c3ccccc3)n2)n[nH]1 + COc1ccc2c(c1)CCC1C2CCC2(C)C(NCCCCCCN3C(=O)C=CC3=O)CCC12 [U73122] (first compound 0.2 µM, partner dose 2 µM) | 74.2 | 79.6 | 75.9 | 69.3 | 85.7 | 72.1 | 86.8 | 47.3 | 37.9 | 53.9
COc1ccc(C2=N[C@@H](c3ccc(Cl)cc3)[C@@H](c3ccc(Cl)cc3)N2C(=O)N2CCNC(=O)C2)c(OC(C)C)c1 [Nutlin-3] + Cn1nnc2c(C(N)=O)ncn2c1=O [temozolomide] (first compound 0.5 µM, partner dose 10 µM) | 72.8 | 102 | 81 | 59.9 | 52.9 | 91 | 84.5 | 94.2 | 78.1 | 67.1
Cc1cn(-c2cc(NC(=O)c3ccc(C)c(Nc4nccc(-c5cccnc5)n4)c3)cc(C(F)(F)F)c2)cn1 [nilotinib] + C=C(c1ccc(C(=O)O)cc1)c1cc2c(cc1C)C(C)(C)CCC2(C)C [Bexarotene] (first compound 1 µM, partner dose 10 µM) | 72.5 | 90.8 | 78.5 | 79.3 | 212 | 94 | 93.8 | 92.6 | 140 | 72
Cc1cc(Nc2cc(N3CCN(C)CC3)nc(/C=C/c3ccccc3)n2)n[nH]1 + Cc1cc(N2CCOCC2)cc2[nH]c(-c3c(NC[C@@H](O)c4cccc(Cl)c4)cc[nH]c3=O)nc12 [BMS536924] (first compound 0.2 µM, partner dose 1 µM) | 64.4 | 86.1 | 82.5 | 62.5 | 77.8 | 96.4 | 117 | 65.4 | 101 | 72.1

Reference: the supplement of paper PMC4604168 (melanoma cell lines)
